# From article PMC4336329 (PLoS ONE, 2015)
# About 14,000 (4.5%) of roughly 310,000 compounds showed an effect of 50% or more. Effects have a minus sign here. The list shows a part of the results.
# Target: human ether-à-go-go-related gene (hERG) potassium channel (human, UniProt Q12809)
# Assay: primary screen, population patch clamp on CHO cells stably expressing hERG
# 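Further: peak tail current of the secondary pulse compared with the same well before compound.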
# human ether-à-go-go-related gene (hERG) potassium channel, sequence (Q12809 whole entry, looked up): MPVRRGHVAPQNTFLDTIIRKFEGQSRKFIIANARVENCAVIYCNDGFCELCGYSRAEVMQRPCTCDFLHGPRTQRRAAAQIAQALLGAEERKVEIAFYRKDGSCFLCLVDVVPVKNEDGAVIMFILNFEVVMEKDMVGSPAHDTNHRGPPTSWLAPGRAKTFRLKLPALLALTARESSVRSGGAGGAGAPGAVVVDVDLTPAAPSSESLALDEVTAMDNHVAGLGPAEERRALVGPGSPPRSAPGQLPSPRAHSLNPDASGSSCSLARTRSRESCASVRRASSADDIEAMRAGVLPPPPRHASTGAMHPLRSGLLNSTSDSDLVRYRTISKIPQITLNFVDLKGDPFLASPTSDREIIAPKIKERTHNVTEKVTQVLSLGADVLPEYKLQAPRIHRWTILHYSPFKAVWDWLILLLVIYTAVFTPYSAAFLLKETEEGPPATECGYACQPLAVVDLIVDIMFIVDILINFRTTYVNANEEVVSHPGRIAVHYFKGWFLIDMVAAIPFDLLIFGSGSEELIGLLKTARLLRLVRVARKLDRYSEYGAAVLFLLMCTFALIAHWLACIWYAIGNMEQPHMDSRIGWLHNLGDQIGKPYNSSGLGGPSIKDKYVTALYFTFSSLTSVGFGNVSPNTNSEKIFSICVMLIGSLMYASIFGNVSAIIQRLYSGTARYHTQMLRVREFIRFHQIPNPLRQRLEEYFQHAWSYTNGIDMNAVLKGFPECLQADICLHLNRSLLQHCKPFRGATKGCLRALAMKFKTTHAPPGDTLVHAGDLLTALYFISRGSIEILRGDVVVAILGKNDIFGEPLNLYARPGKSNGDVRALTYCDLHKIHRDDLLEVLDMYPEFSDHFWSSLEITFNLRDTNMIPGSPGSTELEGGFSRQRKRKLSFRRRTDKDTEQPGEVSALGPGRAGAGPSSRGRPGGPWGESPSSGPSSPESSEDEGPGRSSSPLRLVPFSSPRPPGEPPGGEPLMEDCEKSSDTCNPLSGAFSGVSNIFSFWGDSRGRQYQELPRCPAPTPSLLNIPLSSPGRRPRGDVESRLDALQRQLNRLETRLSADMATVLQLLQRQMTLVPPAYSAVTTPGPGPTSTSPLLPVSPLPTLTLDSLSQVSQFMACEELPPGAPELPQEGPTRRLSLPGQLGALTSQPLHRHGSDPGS
row,SMILES,"hERG current change (%, negative = inhibition) at 10uM [%]"
1,CC(C)CCNC(=S)Nc1ccc2nc3n(c(=O)c2c1)CCCCC3,-46.2
2,O=C(CSc1nnc(-c2ccco2)o1)N1CCCCC1,12.3
3,C[C@H](NC(=O)[C@@H]1Cc2ccccc2CN1)C(=O)NC1CCCCC1,13.3
4,Cc1ccc(C(=O)C[n+]2cc(Br)cc(Br)c2)cc1.[Br-],-9.89
5,COCCN(C(=O)CSc1nnc(-c2cccc(OC)c2)n1C)c1c(N)n(Cc2ccccc2)c(=O)[nH]c1=O,21.7
6,CC(Oc1cc2oc(=O)c3c(c2cc1Cl)CCC3)C(=O)NCc1cccnc1 (centres unmarked),-4.94
7,CCN(CC)S(=O)(=O)c1ccc(N2CCOCC2)c(NS(=O)(=O)c2ccc(C)cc2)c1,6.21
8,COc1ccc(NS(=O)(=O)c2ccc(C)c(NC(=O)NC3CCCCC3)c2)cc1,-24.9
9,CCN(CC(=O)Nc1ccc(NC(C)=O)cc1)C(=O)C12CC3CC(CC(Cl)(C3)C1)C2,-14.6
10,CCOc1ccc(Cl)cc1CNc1nnnn1C,21.7
11,CCC(C)N1CC(O)=C(c2nc3ccccc3[nH]2)C1=N (centres unmarked),-6.65
12,CCOC(=O)C1CCN(C(=O)c2ccc(Oc3cc(Cl)cc(Cl)c3)o2)CC1,-13
13,CC(OCC(O)CNCC1COc2ccccc2O1)c1ccc(Cl)cc1 (centres unmarked),-22.7
14,O=S(=O)(NCC(c1ccco1)N1CCOCC1)c1ccc(Cl)cc1 (centres unmarked),-10.6
15,CCOc1cc(C(=O)Nc2ccccc2N2CCOCC2)ccc1OCC(=O)N1CCOCC1,1.5
16,Cc1nn(C)c(C)c1CN(C)C(=O)CCCC(=O)O,-4.62
17,CN(C(=O)COC(=O)c1cc(S(=O)(=O)N2CCOCC2)c(Cl)cc1Cl)C1CCS(=O)(=O)C1 (centres unmarked),2.52
18,CS(=O)(=O)c1ccccc1-c1nnc(NC(=O)Cc2ccccc2)o1,14.3
19,O=C(O)C12CC3CC(C1)CC(n1cnc(Cl)n1)(C3)C2,7.4

row,SMILES,"hERG current change (%, negative = inhibition) at 10uM [%]"
1,COc1ccc(CN2C(=O)C(C)=C(C)C2OC)cc1 (centres unmarked),15
2,COc1ccc(C(=O)CSc2nnc(CN3CCCCC3)n2-c2ccc(Cl)cc2)cc1OC,-17.1
3,Cc1ccc2nc(-c3ccc(N4C(=O)CC(N5CCC(C(N)=O)CC5)C4=O)cc3)sc2c1 (centres unmarked),7.3
4,COc1cc(/C=N\NC(=O)c2ccc(Cl)cc2)ccc1Oc1ccc([N+](=O)[O-])cn1,-32.7
5,CCCCNC(=O)COC(=O)c1cc(Br)ccc1Cl,3.22
6,Cc1ccc(S(=O)(=O)NCCN=C(CN2CCCC2)NS(=O)(=O)c2ccc(C)cc2)cc1,-30.8
7,O=C(CSc1nnnn1Cc1ccccc1)c1ccc(F)cc1,-25.8
8,Cc1cccc(NC(=O)[C@H](C)NC(=O)[C@@H]2Cc3ccccc3CN2C(=O)OC(C)(C)C)c1,-5.71
9,COc1ccc(CCN(C)C(=O)c2cc(S(=O)(=O)N3CCCCC3)ccc2Cl)cc1OC,0.297
10,CC(C)NC(=O)c1ccccc1NC(=O)Cc1ccc(Br)cc1,8.93
11,COc1ccc(S(=O)(=O)N(C)CC(=O)NCc2cccnc2)cc1C,1.21
12,CCn1c(SCC(=O)N2CCCc3ccccc32)nc2c(c1=O)SC(C)C2 (centres unmarked),-24.7
13,CC1C(=O)N2CCCc3cc(NC(=O)C(=O)NCc4cccnc4)cc1c32 (centres unmarked),9.89
14,COc1c(O)cnn(-c2ccccc2)c1=O,16.4
15,O=C(CSc1nn(-c2ccc(Cl)cc2)c(=S)s1)NCC1CCCO1 (centres unmarked),-0.435
16,O=C(CN1C(=O)NC2(CCc3ccccc32)C1=O)c1ccccc1 (centres unmarked),15.1
17,Cl.c1ccc2c(c1)NCCS2,8.05
18,CCC(C)(C)n1nnnc1C(c1ccc2ncccc2c1)N1CCN(c2nc3ccccc3s2)CC1 (centres unmarked),2.06
19,COc1ccc(/C=N/n2c(=S)n(C)c3ccccc32)cc1OC,-15.7

row,SMILES,"hERG current change (%, negative = inhibition) at 10uM [%]"
1,CC(C)c1nnc(NC(=O)c2cc3ccccc3o2)s1,11.1
2,COc1cc(CSc2ncn[nH]2)c(OC)cc1CSc1ncn[nH]1,2.02
3,Cc1cc(Cl)ccc1NC(=O)CSc1nnc(-c2ccncc2)n1Cc1ccco1,-52.8
4,O=C(CS(=O)c1cccc(C(F)(F)F)c1)Nc1ccccc1Cl (centres unmarked),-7.02
5,CCOc1ccc2nc(SCC(=O)Nc3cc(C)on3)c(C)cc2c1,11.9
6,O=C(N/N=C/c1c[nH]c2ccccc12)c1ccn[nH]1,18.9
7,Cc1nnc(Sc2c(N)n(C)c(=O)n(C)c2=O)s1,-7.72
8,O=C(Nc1cc(-c2nc3ncccc3o2)ccc1Cl)c1ccco1,-22.2
9,CC(C)=CCN1CCN(Cc2cc(C(C)C)n[nH]2)CC1CCO (centres unmarked),11.3
10,CC(C)CCCN1CCN=C1Nc1ccccc1,-3.11
11,O=C(OCn1nnc2ccccc2c1=O)c1cc(-c2ccccc2Cl)nc2ccccc12,12.8
12,Cc1cc(C(=O)Nc2cccc(/C=C/C(=O)O)c2)c(C)o1,-4.62
13,Cn1c(SCC(=O)c2ccc3c(c2)Cc2ccccc2-3)nnc1-c1ccccc1,7.89
14,CC(=O)N1Cc2ccccc2CC1C(=O)O (centres unmarked),-7.43
15,COc1ccc(Br)cc1S(=O)(=O)N1CCN=C1C,-0.252
16,COc1cc(C(=O)NCc2nnc(SCC(=O)NC3CCCC3)o2)cc(OC)c1OC,9.56
17,CC(C)(C)OC(=O)N1CCC(NC(=O)c2nc[nH]c2C(=O)N2CCN(C(=O)OC(C)(C)C)CC2)CC1,9.85
18,COc1ccc(-c2ccc3oc(-c4ccc(OC)cc4)c(-c4cc(OC)c(OC)c(OC)c4)c3c2)cc1,0.835
